# Source: the RNAGym collection of RNA variant scans (doi:10.1093/nar/gkz1192)
# The source gives no read counts; variants with many changes may rest on few reads.
# B1: CPEB3 Ribozyme (parent)
# chain: UAACAGGGGGCCACAGCAGAAGCGUUCACGUCGCAGCCCCUGUCAGAUUCUGGUGAAUCUGCGAAUUCUGCUGUAUAUCUC
# Variants of: B1
# Experiment: self-cleavage, relative activity (ratio to wild type); higher = more cleavage; in vitro, sequencing
# Outline: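 Barcoded CPEB3 ribozyme mutants, produced by rounds of error-prone PCR, self-cleaved while being transcribed with T7 RNA polymerase for 5 hours at 37°C and during a subsequent 15 min DNase I step before EDTA was added. Sequencing of template-switched cDNA on Illumina gave cleaved and total reads, and DNA sequencing assigned barcodes to variants. Each variant's relative activity is its cleaved/total read fraction divided by the unmutated ribozyme's fraction, averaged across three batches. A variant needed a minimum of 5 reads.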
row,Variant,self-cleavage
1,UAACAGGGGGCCACAGCAGAAGCGUUCACGUCGCAGCUCCUGUCGGAUUCUGGUGAAUCUGCGAAUUCUGCUGUAUACCUC [C38U A45G U78C],0.47
2,UAACAGGGGGCCACAGCAGAAGCGUUCACGUCGCAGCUCCUGUCUGAUUCUGGAGAAUCUGCGAAUCCUGCUGUAUAUCCC [C38U A45U U54A U67C U80C],0.12
3,UAACAGGGGGCCACAGCAGAAGCGUUCACGUCGCAGCUCCUGUCUGAUUCUGGUGAAUCUGCGAACUCUGCUGUUUAUCUC [C38U A45U U66C A75U],0.15
4,UAACAGGGGGCCACAGCAGAAGCGUUCACGUCGCAGCUCCUGUCAGGCUCUGGAGAAUCUGCGAAUUCUGCUGUAUUUCUC [C38U A47G U48C U54A A77U],0.13
5,UAACAGGGGGCCACAGCAGAAGCGUUCACGUCGCAGCUCCUGUCAGAUUCUGGUGGAUCUGCGAAUCCUGCUGCAAAUCUC [C38U A56G U67C U74C U76A],0.15
6,UAACAGGGGGCCACAGCAGAAGCGUUCACGUCGCAGCUCCUGUCAGAUUCUGGUGUAUCUGCGAAUUCUGCUGUACAUCUC [C38U A56U U76C],0.36
7,UAACAGGGGGCCACAGCAGAAGCGUUCACGUCGCAGCUCCUGUCAGAUUCUGGUGACUCUGCGUAUUCUGCUGUACAUCUC [C38U A57C A64U U76C],0.06
8,UAACAGGGGGCCACAGCAGAAGCGUUCACGUCGCAGCUCCUGUCAGAUUCUGGUGAGUCUGCGGAUUCUGCUGUAUAUCUC [C38U A57G A64G],0.51
9,UAACAGGGGGCCACAGCAGAAGCGUUCACGUCGCAGCUGCAGUCAGAUUCUGGUGAAUCUGCGAAUUCUGCAGUUUAUCUC [C38U C39G U41A U72A A75U],0.07
10,UAACAGGGGGCCACAGCAGAAGCGUUCACGUCGCAGCUCUUGUCAGAUUCUGGUGAAUCUGCGGAUCCUGCAGUAUUUCUC [C38U C40U A64G U67C U72A A77U],0.05
11,UAACAGGGGGCCACAGCAGAAGCGUUCACGUCGCAGCUCCUGUCAGAUUAUGGUGGAUCUGCGAAUUCUGCUGAAUAUCUC [C38U C50A A56G U74A],0.52
12,UAACAGGGGGCCACAGCAGAAGCGUUCACGUCGCAGCUCCUAUCAGAUUCUGGUGAAUCUGAGUAUUCUGCUGUAUAUCUC [C38U G42A C62A A64U],0.13
13,UAACAGGGGGCCACAGCAGAAGCGUUCACGUCGCAGCUCCAGUCAGAUUCUGGUGGAUCUGCGAAUUCUGCUGUAUAUCUC [C38U U41A A56G],0.19
14,UAACAGGGGGCCACAGCAGAAGCGUUCACGUCGCAGCUCCAGUCAGACUCUGGUGAAUCUGCGAACUCUGCUGUAUAUCUC [C38U U41A U48C U66C],0.14
15,UAACAGGGGGCCACAGCAGAAGCGUUCACGUCGCAGCUCCCGCCAGAUUCUGGUGAAUCCGCGAAUUCUGCCGUAUAUCUC [C38U U41C U43C U60C U72C],0.09
16,UAACAGGGGGCCACAGCAGAAGCGUUCACGUCGCAGCUCCCGUCAGAUUCUGGUGAAACUGCGAAUUCUGCUGUAUAUCUC [C38U U41C U58A],0.47
17,UAACAGGGGGCCACAGCAGAAGCGUUCACGUCGCAGCUCCCGUCAGAUUCUGGUGAAUCAGCGAAUUCUGCUGUAUAUCUC [C38U U41C U60A],0.5

row,Variant,self-cleavage
1,UAACAGGGGGCCACAGCAGAAGCGUUCACGUCGCAGCUCCUGCCAGAUUCUGGUGAAUUUGCGAAUUCUGCUGUAUAUCUC [C38U U43C C59U],0.4
2,UAACAGGGGGCCACAGCAGAAGCGUUCACGUCGCAGCUCCUGCCAGAUACUGGUGAAUCUGCGAAUUCUGCUGUAUAUCUC [C38U U43C U49A],0.14
3,UAACAGGGGGCCACAGCAGAAGCGUUCACGUCGCAGCUCCUGCCAGAUUCUGGUGAAUCCGCGAAUUCUGCUGUACAUCUC [C38U U43C U60C U76C],0.14
4,UAACAGGGGGCCACAGCAGAAGCGUUCACGUCGCAGCUCCUGUCAGAAUCUGGCGAAUCUGCGAAUUCUGCUGUAUAUCUC [C38U U48A U54C],0.13
5,UAACAGGGGGCCACAGCAGAAGCGUUCACGUCGCAGCUCCUGUCAGACUCUGGUGAGUCUGCGAAUUCUGCUGUAUAUCUC [C38U U48C A57G],1.15
6,UAACAGGGGGCCACAGCAGAAGCGUUCACGUCGCAGCUCCUGUCAGACUCUGGUGAAUCUGCGAAUACUGCUGUACAUCUC [C38U U48C U67A U76C],0.31
7,UAACAGGGGGCCACAGCAGAAGCGUUCACGUCGCAGCUCCUGUCAGAUCCUGUUGAAUCUGCGAAUUCUGCUGUGUAUCUC [C38U U49C G53U A75G],0.18
8,UAACAGGGGGCCACAGCAGAAGCGUUCACGUCGCAGCUCCUGUCAGAUCCUGGUGAACCUGCAAAUUCUGCUGUAUAUCUC [C38U U49C U58C G63A],0.14
9,UAACAGGGGGCCACAGCAGAAGCGUUCACGUCGCAGCUCCUGUCAGAUCCUGGUGAAUCUGCGAACUCUGCUGUAUAUCUC [C38U U49C U66C],0.38
10,UAACAGGGGGCCACAGCAGAAGCGUUCACGUCGCAGCUCCUGUCAGAUUCAGGUGAAUCUGCGAAUUCUGCUGUAUAUCCC [C38U U51A U80C],0.26
11,UAACAGGGGGCCACAGCAGAAGCGUUCACGUCGCAGCUCCUGUCAGAUUCCGGUGAAGCUGCGAAUUCUGCUGUAUAUCUC [C38U U51C U58G],0.16
12,UAACAGGGGGCCACAGCAGAAGCGUUCACGUCGCAGCUCCUGUCAGAUUCUGGAGAAUCUGCGAAUUCUGCCGUAUAUCUC [C38U U54A U72C],0.95
13,UAACAGGGGGCCACAGCAGAAGCGUUCACGUCGCAGCUCCUGUCAGAUUCUGGUGAAUCCGCGGAUUCUGCUGUAUAUCUC [C38U U60C A64G],0.2
14,UAACAGGGGGCCACAGCAGAAGCGUUCACGUCGCAGCUCCUGUCAGAUUCUGGUGAAUCCGCGAAUUCUGCUGUAUAUCCC [C38U U60C U80C],0.16
15,UAACAGGGGGCCACAGCAGAAGCGUUCACGUCGCAGCUCCUGUCAGAUUCUGGUGAAUCUGCGAACUCUGCUGUAUUUCUC [C38U U66C A77U],0.13
16,UAACAGGGGGCCACAGCAGAAGCGUUCACGUCGCAGCUCCUGUCAGAUUCUGGUGAAUCUGCGAAUUCAGCUGUAUAUCCC [C38U U69A U80C],0.21
17,UAACAGGGGGCCACAGCAGAAGCGUUCACGUCGCAGCUCCUGUCAGAUUCUGGUGAAUCUGCGAAUUCGGCUGUAAAUCUC [C38U U69G U76A],0.5
